Measured values from the supplement of paper PMC8728848.
Some of the results follow.

Tests used:
Assay in all cases: glycan array binding signal (z-score within array); higher = stronger binding
Details in all cases: glycan notation: IUPAC condensed, linker removed
[1] = molecular target: Glc(a1-4)Glc(a1-4)Glc(a1-4)Glc(a1-4)Glc(a1-4)Glc(a1-4)Glc(a1-4)Glc(a1-4)Glc(a1-4)Glc(a1-4)Glc(a1-4)Glc(a1-4)Glc
Procedure, shortened: (§1)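 Glycan array binding is given as a within-array Z-score, which can be read as non-binding when negative. The arrays, 3228 of them, came from the Consortium for Functional Glycomics database and were retained only where the protein sequence was available. Z-scores were averaged across arrays of the same protein sequence at different concentrations or buffers and across linkers.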

[2] = molecular target: Glc(a1-6)Glc
Procedure, shortened: as §1

[3] = molecular target: Glc(a1-6)Glc(a1-4)Glc(a1-4)Glc
Procedure, shortened: as §1

[4] = molecular target: Glc(a1-6)Glc(a1-6)Glc
Procedure, shortened: as §1

[5] = molecular target: Glc(a1-6)Glc(a1-6)Glc(a1-6)Glc
Procedure, shortened: as §1

[6] = molecular target: Glc(a1-6)Glc(a1-6)Glc(a1-6)Glc(a1-6)Glc
Procedure, shortened: as §1

[7] = molecular target: Glc(a1-6)Glc(a1-6)Glc(a1-6)Glc(a1-6)Glc(a1-6)Glc
Procedure, shortened: as §1

[8] = molecular target: Glc(a1-6)Glc(a1-6)Glc(a1-6)Glc(a1-6)Glc(a1-6)Glc(a1-6)Glc
Procedure, shortened: as §1

[9] = molecular target: Glc(a1-6)Glc(a1-6)Glc(a1-6)Glc(a1-6)Glc(a1-6)Glc(a1-6)Glc(a1-6)Glc
Procedure, shortened: as §1

[10] = molecular target: Glc(a1-6)Glc(a1-6)Glc(a1-6)Glc(a1-6)Glc(a1-6)Glc(a1-6)Glc(a1-6)Glc(a1-6)Glc
Procedure, shortened: as §1

[11] = molecular target: Glc(a1-6)Glc(a1-6)Glc(a1-6)Glc(a1-6)Glc(a1-6)Glc(a1-6)Glc(a1-6)Glc(a1-6)Glc(a1-6)Glc
Procedure, shortened: as §1

[12] = molecular target: Glc(a1-6)Glc(a1-6)Glc(a1-6)Glc(a1-6)Glc(a1-6)Glc(a1-6)Glc(a1-6)Glc(a1-6)Glc(a1-6)Glc(a1-6)Glc
Procedure, shortened: as §1

[13] = molecular target: Glc(a1-6)Glc(a1-6)Glc(a1-6)Glc(a1-6)Glc(a1-6)Glc(a1-6)Glc(a1-6)Glc(a1-6)Glc(a1-6)Glc(a1-6)Glc(a1-6)Glc
Procedure, shortened: as §1

[14] = molecular target: Glc(a1-6)Glc(a1-6)Glc(a1-6)Glc(a1-6)Glc(a1-6)Glc(a1-6)Glc(a1-6)Glc(a1-6)Glc(a1-6)Glc(a1-6)Glc(a1-6)Glc(a1-6)Glc
Procedure, shortened: as §1

[15] = molecular target: Glc(b1-2)Glc
Procedure, shortened: as §1

[16] = molecular target: Glc(b1-3)Glc
Procedure, shortened: as §1

[17] = molecular target: Glc(b1-3)Glc(b1-3)Glc
Procedure, shortened: as §1

[18] = molecular target: Glc(b1-3)Glc(b1-3)Glc(b1-3)Glc
Procedure, shortened: as §1

[19] = molecular target: Glc(b1-3)Glc(b1-3)Glc(b1-3)Glc(b1-3)Glc
Procedure, shortened: as §1

[20] = molecular target: Glc(b1-3)Glc(b1-3)Glc(b1-3)Glc(b1-3)Glc(b1-3)Glc
Procedure, shortened: as §1

[21] = molecular target: Glc(b1-3)Glc(b1-3)Glc(b1-3)Glc(b1-3)Glc(b1-3)Glc(b1-3)Glc
Procedure, shortened: as §1

[22] = molecular target: Glc(b1-3)Glc(b1-3)Glc(b1-3)Glc(b1-3)Glc(b1-3)Glc(b1-3)Glc(b1-3)Glc
Procedure, shortened: as §1

[23] = molecular target: Glc(b1-3)Glc(b1-3)Glc(b1-3)Glc(b1-3)Glc(b1-3)Glc(b1-3)Glc(b1-3)Glc(b1-3)Glc
Procedure, shortened: as §1

[24] = molecular target: Glc(b1-3)Glc(b1-3)Glc(b1-3)Glc(b1-3)Glc(b1-3)Glc(b1-3)Glc(b1-3)Glc(b1-3)Glc(b1-3)Glc
Procedure, shortened: as §1

[25] = molecular target: Glc(b1-3)Glc(b1-3)Glc(b1-3)Glc(b1-3)Glc(b1-3)Glc(b1-3)Glc(b1-3)Glc(b1-3)Glc(b1-3)Glc(b1-3)Glc
Procedure, shortened: as §1

[26] = molecular target: Glc(b1-3)Glc(b1-3)Glc(b1-3)Glc(b1-3)Glc(b1-3)Glc(b1-3)Glc(b1-3)Glc(b1-3)Glc(b1-3)Glc(b1-3)Glc(b1-3)Glc
Procedure, shortened: as §1

[27] = molecular target: Glc(b1-3)Glc(b1-3)Glc(b1-3)Glc(b1-3)Glc(b1-3)Glc(b1-3)Glc(b1-3)Glc(b1-3)Glc(b1-3)Glc(b1-3)Glc(b1-3)Glc(b1-3)Glc
Procedure, shortened: as §1

[28] = molecular target: Glc(b1-4)Glc
Procedure, shortened: as §1

[29] = molecular target: Glc(b1-4)Glc(b1-4)Glc
Procedure, shortened: as §1

[30] = molecular target: Glc(b1-4)Glc(b1-4)Glc(b1-4)Glc
Procedure, shortened: as §1

[31] = molecular target: Glc(b1-4)Glc(b1-4)Glc(b1-4)Glc(b1-4)Glc
Procedure, shortened: as §1

[32] = molecular target: Glc(b1-4)Glc(b1-4)Glc(b1-4)Glc(b1-4)Glc(b1-4)Glc
Procedure, shortened: as §1

[33] = molecular target: Glc(b1-4)Glc(b1-4)Glc(b1-4)Glc(b1-4)Glc(b1-4)Glc(b1-4)Glc
Procedure, shortened: as §1

[34] = molecular target: Glc(b1-4)Glc(b1-4)Glc(b1-4)Glc(b1-4)Glc(b1-4)Glc(b1-4)Glc(b1-4)Glc
Procedure, shortened: as §1

[35] = molecular target: Glc(b1-4)Glc(b1-4)Glc(b1-4)Glc(b1-4)Glc(b1-4)Glc(b1-4)Glc(b1-4)Glc(b1-4)Glc
Procedure, shortened: as §1

[36] = molecular target: Glc(b1-4)Glc(b1-4)Glc(b1-4)Glc(b1-4)Glc(b1-4)Glc(b1-4)Glc(b1-4)Glc(b1-4)Glc(b1-4)Glc
Procedure, shortened: as §1

[37] = molecular target: Glc(b1-4)Glc(b1-4)Glc(b1-4)Glc(b1-4)Glc(b1-4)Glc(b1-4)Glc(b1-4)Glc(b1-4)Glc(b1-4)Glc(b1-4)Glc
Procedure, shortened: as §1

[38] = molecular target: Glc(b1-4)Glc(b1-4)Glc(b1-4)Glc(b1-4)Glc(b1-4)Glc(b1-4)Glc(b1-4)Glc(b1-4)Glc(b1-4)Glc(b1-4)Glc(b1-4)Glc
Procedure, shortened: as §1

Measured: glycan array binding signal (z-score)

B1: MIC1 (Toxoplasma gondii), O00834 (protein)
chain: VGPEAYGEASHSHSPASGRYIQQMLDQRCQEIAAELCQSGLRKMCVPSSRIVARNAVGITHQNTLQWRCFDTASLLESNQENNGVNCVDDCGHTIPCPGGVHRQNSNHATRHEILSKLVEEGVQRFCSPYQASANKYCNDKFPGTIARRSKGFGNNVEVAWRCYEKASLLYSVYAECASNCGTTWYCPGGRRGTSTELDKRHYTEEEGIRQAIGSVDSPCSEVEVCLPKDENPPLCLDESGQISRT
-0.287: [1] | [4] | [5] | [10] | [12] | [13] | [14] | [15] | [16] | [17] | [18] | [21] | [22] | [23] | [24] | [25] | [26] | [27] | [28] | [29] | [30] | [32] | [33] | [34] | [35] | [36] | [37] | [38]
-0.298: [20]
-0.278: [3]
-0.303: [6]
-0.283: [11]
-0.312: [2] | [7] | [8] | [9] | [19] | [31]
